Data from the supplement of paper PMC3334620.
In all, about 33,000 sequences were measured (“E-score (-0.5 to 0.5)”: median about -0.012, highest 2% from about 0.27 on). The list shows a part of the results.

target: T1, Vhr1 (UniProt P40522); assay: PBM E-score (8-mer binding enrichment) (E-score (-0.5 to 0.5)); higher = stronger / more preferred TF binding; most listed sequences are background and not binding sites; conditions: protein concentration: 200 nM; construct: GST-full length
T1 sequence: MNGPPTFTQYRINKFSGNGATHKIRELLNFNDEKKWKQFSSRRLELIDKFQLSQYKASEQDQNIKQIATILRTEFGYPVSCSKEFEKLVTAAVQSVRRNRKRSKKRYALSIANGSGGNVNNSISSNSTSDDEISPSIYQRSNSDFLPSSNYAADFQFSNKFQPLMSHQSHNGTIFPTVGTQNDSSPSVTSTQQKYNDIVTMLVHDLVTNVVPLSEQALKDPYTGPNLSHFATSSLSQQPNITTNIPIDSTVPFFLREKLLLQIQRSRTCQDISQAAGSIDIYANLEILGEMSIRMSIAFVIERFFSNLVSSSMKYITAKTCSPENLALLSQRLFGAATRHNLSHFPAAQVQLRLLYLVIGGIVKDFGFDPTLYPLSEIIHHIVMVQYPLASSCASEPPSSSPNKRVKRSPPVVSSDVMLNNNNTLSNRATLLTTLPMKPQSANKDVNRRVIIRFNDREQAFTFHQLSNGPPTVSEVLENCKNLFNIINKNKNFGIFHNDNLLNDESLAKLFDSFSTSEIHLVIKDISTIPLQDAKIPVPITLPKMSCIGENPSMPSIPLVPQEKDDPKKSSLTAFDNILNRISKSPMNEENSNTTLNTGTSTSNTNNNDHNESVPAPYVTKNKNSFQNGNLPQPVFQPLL
Method in brief: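 For each ungapped eight-base word taken together with its reverse complement, the Universal PBM Analysis Suite assigned an E-score. Binding data came from GST-tagged yeast transcription factors, applied at about 100-200 nM, on universal all-10-mer Agilent arrays made double-stranded by primer extension. Fluorescent anti-GST marked bound protein, and scans were normalised with masliner.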

Sequence | PBM E-score
AATTTACA | -0.166
AGTATACG | 0.0162
CCCCTTAC | -0.0935
CAATAGCA | -0.121
ACTACGCC | -0.0476
ATAACATC | 0.18
GCTTACGA | -0.203
CGTCTCAA | -0.0154
AAAGAAAA | -0.0932
GTAATAGA | -0.0372
ATTCTAAC | -0.0555
CCCTCCCA | 0.236
AACAAGTA | -0.286
AACCTCTG | -0.0213
ACTGGGTC | -0.0808
TGGCGCCA | -0.0479
GGAAAGAA | -0.0899
ATGGTATA | 0.095
TGCGCCAA | -0.115
CGGGGTCA | 0.102
CCTGGGAC | -0.192
ATCTGGTC | 0.0894
TGATGCAA | 0.117
GACAAACA | 0.0616
TGCCGACA | 0.0737

Sequence | PBM E-score
CCATTGTA | 0.179
TACAAGCA | 0.126
AATGCACT | 0.00935
ACGTATAT | 0.0948
CCCGAAAC | -0.189
ATGATAGC | 0.0539
GAAAGTCA | 0.203
AAAGCCCA | -0.0818
AAGAATTA | -0.369
ACCCGGAA | 0.0692
GTCTAGAA | -0.17
TATTTAGA | 0.0897
CTGAAGGC | -0.33
CATCCCCG | 0.107
CAAAATTC | 0.0266
GCACCAGA | -0.0213
AGCCGCAA | 0.0829
CCGCTTTC | -0.0995
ACAATAAT | -0.0245
CGACCTCG | 0.0818
TCACGAGA | 0.0719
CACTCCTG | 0.116
ACTGAAGC | 0.0356
GCGTTAGA | -0.216
AATTAACG | -0.0971

Sequence | PBM E-score
ATTACCTC | -0.0495
AACGCGAC | 0.0199
ATGCAAAG | -0.202
GGGCTTCA | -0.00484
ATAGTCAG | 0.333
CAAACGCG | -0.0187
ACGTTTAG | -0.151
GCCAATTA | -0.0432
CGTGTGTC | 0.0761
ATGCTTCG | 0.0045
ACAGGATC | 0.047
CCCAATTA | 0.0589
CCACATGA | 0.115
GAAGTGAC | -0.122
CGAAGGGC | -0.158
CTCACGTC | 0.0194
CGGGACTA | -0.168
AAAATATG | 0.0742
GAAACGAA | -0.0153
GGCCTTAC | -0.148
CGGGCGGA | 0.0619
AAAGATAA | -0.137
CTTATCAC | 0.0322
GGATGCGA | -0.0759
AGGAAACT | -0.0671

Sequence | PBM E-score
ACCCTATA | 0.115
ATTCCATC | 0.086
CTACAGGA | -0.114
AAATGATC | -0.0287
CGGGCTCC | -0.184
CAGGACCG | -0.0695
AGGTAACT | 0.0213
CCTCAAGA | -0.178
AAAGAGAA | -0.106
CCCTTTCC | -0.143
ACCAACAA | 0.359
GTATGCCA | -0.118
ACTTTCCC | -0.0927
CTTGTTTA | -0.0807
AACGCGGT | 0.0262
CAATCTTA | -0.11
ACCTTGCA | -0.147
CCGTGATC | 0.0926
ACCAGCGG | 0.00605
TCAACGAA | -0.131
ATGGCCAG | 0.0351
AGCGAAAA | -0.167
ATAAGCTA | -0.0374
CGCCAGTC | 0.103
ACTTGCAG | -0.22

Sequence | PBM E-score
CTTAACCC | -0.213
TTGAAAAA | -0.171
AAAGTCTT | -0.233
ACTCTACT | 0.0544
ACGACGAA | 0.125
AGAGAAGA | -0.148
CCCCCAGA | -0.347
ATTGCGTC | 0.0326
CACCCAAC | 0.167
AACTTATG | 0.0751
CGTAATTC | -0.0942
AGTATGTC | 0.168
GCCCAAAC | 0.0733
GAAATATC | 0.086
ACCTACTC | 0.0487
AGCCGGCC | -0.0238
AAGTCAGA | 0.0614
CACGGTCA | 0.117
AAGCTTGA | -0.169
GCGTACAC | -0.0178
ATCGGATG | -0.132
ATTAGATC | 0.09
GCAAGCTA | -0.152
CACCTACA | 0.0983
AACTGACT | 0.191

Sequence | PBM E-score
GATTCTGA | 0.0911
ATCTTTAC | -0.063
CAATACTG | 0.138
CTTGCAGC | -0.233
AACGTAAG | -0.173
AAGTAATA | -0.0578
CCAAGAAC | -0.187
AGTTCAAT | -0.149
CCGCCTAC | 0.0023
ACCTAATG | -0.0403
GTCCACAA | -0.282
GCACACAC | 0.178
CCCAAAAA | -0.14
TAATCGTA | 0.114
TCCTGAGA | -0.158
AGAGGATC | -0.0834
ACGATCCG | 0.133
ATTGCGTG | 0.0365
ACCACAAG | -0.00474
CGGTCCGC | -0.0767
ATGTCGAG | -0.141
GGTCGAGA | 0.145
TTAGCTAA | -0.14
ACTACAAA | 0.143
ACGCGGTA | -0.0469

Sequence | PBM E-score
GTTCAGTA | 0.0571
GCATATAC | -0.0649
CCGGTGCC | -0.194
ACCTAGCC | -0.207
AGGCTGTG | 0.00113
ATGCCATC | 0.147
AACCCGGA | 0.143
AAAGATTT | -0.134
CATTCGCC | 0.00808
CGTTATCC | -0.0844
CAACTCTG | 0.0491
AACAGACC | 0.0701
CTCGGATC | 0.0579
CCTGACCG | -0.105
CACAACAC | 0.181
CAGTCCGG | -0.0896
ATTGCTCC | 0.0426
CTCCATTC | -0.0279
CACAGTAC | 0.196
AAATCATT | -0.011
CTACGGTC | -0.2
CCCTTTTC | 0.0427
